This is an account of results in the antibiotic and cytotoxicity screens of Wong et al. (2023).

Test [1] relates to HSkMC (human skeletal muscle cells). Description: cytotoxicity call (relative viability < 0.9). The note with it: 10 µM.
The subject of test [2] is S. aureus RN4220. The test can be described thus: growth inhibition call (relative growth <= 0.2). The note with it: 50 µM.

The structures appear in SMILES notation. The list shows a part of the results.

Regarding `C[C@@H]1CN([C@@H](C)CO)C(=O)c2cccc(NS(=O)(=O)c3ccccc3)c2O[C@@H]1CN(C)Cc1ccncc1`, the cytotoxicity call in test [1] was “inactive”. For the same compound, the growth inhibition call in test [2] is “inactive”.
Regarding `C[C@H](CO)N1C[C@H](C)[C@@H](CN(C)Cc2ccccc2)Oc2ccc(NC(=O)Cn3cnnn3)cc2C1=O`, the cytotoxicity call in test [1] was “inactive”. Also, in test [2], the growth inhibition call is “inactive”.
For the compound `C[C@H]1CN([C@@H](C)CO)C(=O)c2cc(C#Cc3ccccc3)cnc2O[C@H]1CN(C)S(=O)(=O)c1ccccc1F`, the cytotoxicity call in test [1] was “inactive”. Further, in test [2], the growth inhibition call was “inactive”.
As for `C[C@H]1CN([C@@H](C)CO)C(=O)Cc2cc(NC(=O)Nc3cccc4ccccc34)ccc2O[C@H]1CN(C)Cc1ccc(C(=O)O)cc1`, in test [1], the cytotoxicity call was “inactive”. Further, the growth inhibition call in test [2] is “inactive”.
With `COCC#Cc1ccc2c(c1)O[C@H](CN(C)Cc1ccccc1F)[C@@H](C)CN([C@H](C)CO)S2(=O)=O`, in test [1], the cytotoxicity call was “inactive”. The growth inhibition call in test [2] is “inactive”.
In the case of `NC(=O)NCC#Cc1ccc2c(c1)[C@]1(C(=O)N2)[C@H](C(=O)N2CCN(c3ncccn3)CC2)[C@H]2C(=O)O[C@H](c3ccccc3)[C@H](c3ccccc3)N2[C@@H]1c1ccccc1OCCO`, in test [1], the cytotoxicity call was “inactive”. In test [2], the growth inhibition call was “inactive”.
`COc1ccc(S(=O)(=O)Nc2ccc3c(c2)C(=O)N([C@H](C)CO)C[C@@H](C)[C@@H](CN(C)C(=O)C2CCCCC2)OCCCC[C@H](C)O3)cc1`: the cytotoxicity call in test [1] was “inactive”. The growth inhibition call in test [2] is “inactive”.
In the case of `COc1ccccc1[C@@H](NC(=O)C1CCN(CCc2ccc(Br)cc2)CC1)c1ccccn1`, the cytotoxicity call in test [1] was “inactive”. Moreover, the growth inhibition call in test [2] was “inactive”.
For the compound `C[C@H](CO)N1C[C@H](C)[C@H](CN(C)Cc2ccc(Oc3ccccc3)cc2)Oc2ccc(NC(=O)CCCN(C)C)cc2CC1=O`, the cytotoxicity call in test [1] is “inactive”. Besides, the growth inhibition call in test [2] was “inactive”.
For the compound `O=C(/C=c1/nc2c([nH]c1=O)=NON2)c1ccccc1`, the cytotoxicity call in test [1] is “inactive”. In addition, the growth inhibition call in test [2] was “active”.
Taken in the same sequence, the figures for `C[C@@H]1CN([C@H](C)CO)C(=O)c2cccc(NC(=O)C3CC3)c2O[C@H]1CN(C)S(=O)(=O)c1ccccc1` were “inactive” and “inactive”.
The corresponding values for `COc1ccc(S(=O)(=O)N2C[C@H](O)COC[C@H]3O[C@@H](CC(=O)NCCCN(C)C)CC[C@@H]32)cc1` are “inactive” and “inactive”.
Consider `C[C@@H]1CN([C@H](C)CO)C(=O)c2cccc(NS(C)(=O)=O)c2O[C@@H]1CN(C)C(=O)Nc1ccccc1`, for which, in test [1], the cytotoxicity call was “inactive”. Also, the growth inhibition call in test [2] was “inactive”.
On to `C[C@@H]1CCCCO[C@H](CN(C)C(=O)Nc2ccc3c(c2)OCO3)[C@@H](C)CN([C@H](C)CO)C(=O)c2cc(NC(=O)c3ccccc3)ccc2O1`, for which, in test [1], the cytotoxicity call is “inactive”. Also, the growth inhibition call in test [2] is “inactive”.
Turning to `C[C@@H]1CN([C@@H](C)CO)C(=O)c2cc(NC(=O)Cc3cn(C)c4ccccc34)ccc2O[C@@H]1CN(C)S(=O)(=O)c1cn(C)cn1`, the cytotoxicity call in test [1] was “inactive”. Further, the growth inhibition call in test [2] is “inactive”.
On to `C[C@@H]1CCCCO[C@@H](CN(C)Cc2ccc(F)cc2)[C@H](C)CN([C@@H](C)CO)C(=O)c2cc(NC(=O)Nc3ccccc3)ccc2O1`, for which, in test [1], the cytotoxicity call is “inactive”. In addition, the growth inhibition call in test [2] is “inactive”.
As for `C[C@@H]1CCCCO[C@H](CN(C)S(=O)(=O)c2ccc(Cl)cc2)[C@@H](C)CN([C@@H](C)CO)C(=O)c2cc(NC(=O)NC3CCCCC3)ccc2O1`, in test [1], the cytotoxicity call is “inactive”. In test [2], the growth inhibition call is “inactive”.
With `COCC(=O)N1C[C@H](C)[C@H](OC)CN(C)C(=O)c2cc(NC(=O)c3ccc(F)cc3)ccc2OC[C@@H]1C`, the cytotoxicity call in test [1] is “inactive”. Moreover, in test [2], the growth inhibition call was “inactive”.
Turning to `C[C@@H]1CN([C@@H](C)CO)C(=O)Cc2cc(NS(=O)(=O)c3ccc(Cl)cc3)ccc2O[C@@H]1CN(C)Cc1ccc(-c2ccccc2)cc1`, the cytotoxicity call in test [1] was “inactive”. In addition, the growth inhibition call in test [2] is “inactive”.
In the case of `C[C@H]1CCCCO[C@@H](CN(C)Cc2ccc3c(c2)OCO3)[C@@H](C)CN([C@@H](C)CO)C(=O)c2cc(NC(=O)Nc3ccc4c(c3)OCO4)ccc2O1`, the cytotoxicity call in test [1] was “inactive”. The growth inhibition call in test [2] is “inactive”.
As for `CN(C)C(=O)c1ccc(-c2ccc3n(c2=O)C[C@H]2[C@H](CO)[C@@H](C(=O)NCCc4ccccc4)N[C@@H]32)cc1`, the cytotoxicity call in test [1] is “inactive”. Also, the growth inhibition call in test [2] was “inactive”.
For `C[C@@H]1CN([C@@H](C)CO)C(=O)Cc2cc(NC(=O)CCN3CCOCC3)ccc2O[C@@H]1CN(C)S(=O)(=O)c1cccs1`, the cytotoxicity call in test [1] was “inactive”. Also, the growth inhibition call in test [2] was “inactive”.
Turning to `O=C(O)c1ccc(CNc2cn[nH]c(=O)n2)cc1`, the cytotoxicity call in test [1] was “inactive”. Moreover, the growth inhibition call in test [2] is “inactive”.
In the case of `Cc1noc(C)c1S(=O)(=O)Nc1ccc2c(c1)CC(=O)N([C@H](C)CO)C[C@H](C)[C@@H](CN(C)Cc1ccccc1)O2`, the cytotoxicity call in test [1] is “inactive”. Also, in test [2], the growth inhibition call is “inactive”.
With `Cc1ccc(S(=O)(=O)N(C)C[C@H]2Oc3cc(C#Cc4ccccc4)ccc3S(=O)(=O)N([C@@H](C)CO)C[C@@H]2C)cc1`, the cytotoxicity call in test [1] was “inactive”. In addition, the growth inhibition call in test [2] is “inactive”.
For `CC(C)=CCC[C@](C)(O[C@@H]1O[C@H](CO[C@@H]2OC[C@@H](O)[C@H](O)[C@H]2O)[C@@H](O)[C@H](O)[C@H]1O)[C@H]1CC[C@]2(C)[C@@H]1[C@H](O)C[C@@H]1[C@@]3(C)CC[C@H](O[C@@H]4O[C@H](CO)[C@@H](O)[C@H](O)[C@H]4O)C(C)(C)[C@@H]3CC[C@]12C`, the cytotoxicity call in test [1] was “inactive”. Also, the growth inhibition call in test [2] was “inactive”.
For `Cc1ccc(S(=O)(=O)N(C)C[C@@H]2Oc3cc(C#Cc4ccccc4)ccc3S(=O)(=O)N([C@H](C)CO)C[C@H]2C)cc1`, in test [1], the cytotoxicity call was “inactive”. For the same compound, the growth inhibition call in test [2] is “inactive”.
With `Cc1c[nH]c2ccccc12`, the cytotoxicity call in test [1] was “inactive”. Further, the growth inhibition call in test [2] was “inactive”.
With `COc1ccc(S(=O)(=O)N(C)C[C@H]2Oc3ccc(NC(=O)Cc4ccccc4)cc3C(=O)N([C@@H](C)CO)C[C@@H]2C)cc1`, in test [1], the cytotoxicity call was “inactive”. In addition, the growth inhibition call in test [2] was “inactive”.
As to `CCS(=O)(=O)N1C[C@]2(CCN(CC2)S(=O)(=O)c2cn(cn2)C)c2c([nH]c3cc(ccc23)OC)[C@@H]1CO`, the cytotoxicity call in test [1] was “inactive”. Further, the growth inhibition call in test [2] is “inactive”.
